Test results taken from the supplement of paper PMC4967469.
IC50 is the fitted dose that halves viability relative to control wells, and lower means more sensitive; where the fit passes the top or lowest dose, that dose stands as a limit. AUC, from the same fit, is the share of area under the viability curve across the 256-fold dose range: 1 means no effect, lower means more sensitive. For some of these results: An inferred top dose was derived from the fitted curves, not read from the paper.

How the values were obtained:
Test in all cases: Viability of human cancer cell lines after 72 h of drug (GDSC screen)
Bexarotene = compound: C=C(c1ccc(C(=O)O)cc1)c1cc2c(cc1C)C(C)(C)CCC2(C)C [Bexarotene]; conditions: top dose 8 µM
Description: (§1)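 Human cancer cell lines in 384-well plates, medium with 10% serum, drug for 72 h over a 256-fold dose range (nine 2-fold or five 4-fold steps up to the top dose). Adherent lines were fixed and stained with the nucleic acid dye Syto60, suspension lines read with resazurin; signal relative to control wells, capped at 0 and 100%. One two-parameter sigmoid per drug and line, fitted in a mixed model over all curves with the slope shared within a line.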

XAV 939 = compound: Oc1nc(-c2ccc(C(F)(F)F)cc2)nc2c1CSCC2 [XAV 939]; conditions: top dose 5 µM; top dose inferred
Description: as §1

NPK76-II-72-1 = compound: COc1cc(C(=O)NC2CCN(C)CC2)ccc1Nc1ncc2c(n1)N(C1CCCC1)C(C)CC(=O)N2C [NPK76-II-72-1]; conditions: top dose 10.24 µM; top dose inferred
Description: as §1

YK 4-279 = compound: COc1ccc(C(=O)CC2(O)C(=O)Nc3c(Cl)ccc(Cl)c32)cc1 [YK 4-279]; conditions: top dose 10 µM
Description: as §1

BMS-345541 = compound: Cc1ccc2nc(NCCN)c3ncc(C)n3c2c1 [BMS-345541]; conditions: top dose 16 µM
Description: as §1

GSK-650394 = compound: O=C(O)c1ccc(-c2c[nH]c3ncc(-c4ccccc4)cc23)cc1C1CCCC1 [GSK-650394]; conditions: top dose 16 µM; top dose inferred
Description: as §1

AZD7762 = compound: NC(=O)Nc1cc(-c2cccc(F)c2)sc1C(=O)N[C@H]1CCCNC1 [AZD7762]; conditions: top dose 2 µM
Description: as §1

Cell Line	AUC (Bexarotene)	IC50 (Bexarotene) [µM]	AUC (XAV 939)	IC50 (XAV 939) [µM]	AUC (NPK76-II-72-1)	IC50 (NPK76-II-72-1) [µM]	AUC (YK 4-279)	IC50 (YK 4-279) [µM]	AUC (BMS-345541)	IC50 (BMS-345541) [µM]	AUC (GSK-650394)	IC50 (GSK-650394) [µM]	AUC (AZD7762)	IC50 (AZD7762) [µM]
GDM-1 (acute myeloid leukaemia, suspension)	0.957	> 8	0.976	> 5	0.474	0.545	0.739	2.91	0.641	2.41	0.502	1.01	0.508	0.131
HCC202 (breast, adherent)	0.941	> 8	0.935	> 5	0.897	> 10.2	0.866	> 10	0.848	> 16	0.868	> 16	0.92	> 2
HCC1954 (breast, adherent)	0.983	> 8	0.973	> 5	0.984	> 10.2	0.779	4.81	0.727	5	0.931	> 16	0.884	> 2
HCC-827 (lung adenocarcinoma, adherent)	0.863	> 8	0.978	> 5	0.972	> 10.2	0.944	> 10	0.906	> 16	0.982	> 16	0.693	0.477
HT (B-cell lymphoma, suspension)	0.912	> 8	0.85	3.33	0.787	4.08	0.879	8.81	0.835	9.31	0.963	> 16	0.741	0.571
HT-1080 (fibrosarcoma, adherent)	0.964	> 8	0.976	> 5	0.984	> 10.2	0.639	1.44	0.974	> 16	0.757	4.99	0.701	0.429
HuH-7 (liver, adherent)	0.972	> 8	0.902	> 5	0.977	> 10.2	0.714	2.5	0.987	> 16	0.854	12.6	0.796	0.932
IPC-298 (melanoma, adherent)	0.934	> 8	0.983	> 5	0.943	> 10.2	0.765	3.59	0.907	> 16	0.977	> 16	0.516	0.138
IST-MEL1 (melanoma, adherent)	0.93	> 8	0.932	> 5	0.912	> 10.2	0.609	1.32	0.858	> 16	0.863	> 16	0.617	0.279
KARPAS-422 (B-cell lymphoma, suspension)	0.983	> 8	0.971	> 5	0.906	> 10.2	0.961	> 10	0.854	12.4	0.912	> 16	0.688	0.418
L-363 (myeloma, suspension)	0.967	> 8	0.98	> 5	0.736	2.69	0.765	3.2	0.838	8.78	0.977	> 16	0.473	0.106
LB2518-MEL (melanoma, adherent)	0.901	> 8	0.986	> 5	0.97	> 10.2	0.727	2.87	0.853	13.6	0.916	> 16	0.898	> 2
LP-1 (myeloma, suspension)	0.983	> 8	0.991	> 5	0.891	8.36	0.989	> 10	0.872	10.9	0.981	> 16	0.993	> 2
LS-411N (large intestine, adherent)	0.877	> 8	0.964	> 5	0.832	8.63	0.802	6.23	0.753	6.42	0.807	–	0.684	0.462
MDA-MB-231 (breast, adherent)	0.944	> 8	0.956	> 5	0.986	> 10.2	0.82	6.2	0.913	> 16	0.941	> 16	0.872	> 2
ML-2 (acute myeloid leukaemia, suspension)	0.941	> 8	0.975	> 5	0.443	0.456	0.685	1.92	0.643	2.36	0.941	> 16	0.674	0.358
MOLM-13 (acute myeloid leukaemia, suspension)	0.954	> 8	0.971	> 5	0.54	0.815	0.693	2.09	0.674	2.95	0.305	0.296	0.035	< 0.00781
MOLP-8 (myeloma, suspension)	0.985	> 8	0.985	> 5	0.523	0.737	0.722	2.58	0.453	0.749	0.969	> 16	0.647	0.313
MV-4-11 (leukaemia, suspension)	0.457	0.391	0.98	> 5	0.707	2.17	0.636	1.37	0.81	6.63	0.23	0.198	0.021	< 0.00781
